# Measurements published in PubChem BioAssay AID463173 (ICCB-Longwood Screening Facility, Harvard Medical School, 2010).
# About 4,300 (8.3%) of roughly 52,000 compounds were called active. Cut-off read from the data, not from the text of the source: active = survival mostly below about 52% (no sharp cut-off); inactive = mostly above about 56%. The list shows a part of the results.
# Tested on: DeltatarO mutant
# Test: growth inhibition of S. aureus wild type versus tarO mutant, primary screen, teichoic acid synthesis inhibitors, RN4220, OD600 (AID 463173)
# Conditions: OD600, 18 h, hits give low values, screened at 18.75 µg/mL (by protocol)
row,SMILES,survival
1,CCCCCC(=O)N1c2ccccc2C(C)(c2ccccc2)CC1(C)C (stereo unspecified),active: -2%
2,O=C(c1ccccc1Br)N(Cc1ccco1)C1CCS(=O)(=O)C1 (stereo unspecified),inactive: 82%
3,O=C(c1ccc2c(c1)N(Cc1ccccc1)C(=O)c1ccccc1S2(=O)=O)N1CCCC1,inactive: 72%
4,O=C(N/N=C/c1ccc(-c2ccc(Cl)c(C(=O)O)c2)o1)c1ccncc1,inactive: 68%
5,CCC(Sc1nc2c(sc3ccccc32)c(=O)n1CCc1ccccc1)C(=O)N(CC)CC (stereo unspecified),inactive: 54%
6,COc1cccc(NC(=O)CSc2nnc(COc3ccc(Cl)cc3)o2)c1,active: 57%
7,COc1ccc(NC(=O)NCCc2c(C)nn(C)c2C)c(OC)c1,inactive: 90%
8,Cc1nnc2c(N3CCN(c4ccccc4F)CC3)nc3ccccc3n12,inactive: 67%
9,CCOC(=O)c1cc(-c2ccc(C)cc2)n(CCC(=O)Nc2nc3c(C)cccc3s2)c1C,inactive: 83%
10,Cc1cc(-n2c(SCC(=O)NCc3ccccc3)nc3ccsc3c2=O)ccc1Cl,inactive: 87%
11,Cc1cccc(Cc2cnc(NC(=O)C3Cc4ccc(C)cc4C(=O)O3)s2)c1 (stereo unspecified),inactive: 85%
12,COc1ccccc1N1CCN(C(=O)C2CCN(S(=O)(=O)c3c(C)noc3/C=C/c3ccc(C)cc3)CC2)CC1,inactive: 78%
13,COc1cccc(Cn2c(=O)n(CC3CCC(C(=O)N4CCCCC4)CC3)c(=O)c3sccc32)c1 (stereo unspecified),inactive: 55%
14,CCOC(=O)N1CCN(Cc2nc3cc(NC(C)=O)ccc3n2C(C)C)CC1,inactive: 89%
15,Cc1cc(C)cc(-n2c(SCC(=O)NCc3ccco3)nc3c([nH]c4ccccc43)c2=O)c1,inactive: 100%
16,CC(C)NC(=O)CCn1c(SCc2c(F)cccc2Cl)nc2c(sc3ccccc32)c1=O,inactive: 67%
17,COc1cc(CNc2ccc3[nH]c(=O)[nH]c3c2)ccc1OCc1ccc(F)cc1Cl,inactive: 89%
18,COC(=O)c1ccc2c(=O)n3nc(Nc4ccc(F)cc4F)sc3nc2c1,inactive: 88%
19,COc1ccc(CN2CCc3c(c(=O)n4ncc(C(=O)N5CCN(c6ccccc6F)CC5)c4n3C)C2)cc1,inactive: 88%
20,Cc1cccc(N2CCN(C(=O)c3nn(C)c4c3CS(=O)(=O)c3ccccc3-4)CC2)c1C,inactive: 67%
21,CS(=O)(=O)N(Cc1ccccc1)c1ccc(C(=O)Nc2cccc(Cl)c2)cc1,active: 36%
22,COc1ccc(CNC(=O)c2ccc3c(O)c(S(=O)(=O)c4ccccc4)c(=O)[nH]c3c2)cc1,inactive: 99%

row,SMILES,survival
1,COc1ccc(NC(=O)c2c(NC(=O)C(F)(F)F)sc3c2CCCCC3)cc1,active: 2%
2,CCCCC1CCC(C(=O)N2CC(=O)Nc3ccc(C)cc3C2c2ccc(F)cc2)CC1 (stereo unspecified),inactive: 126%
3,COc1ccc(Cn2ccc3nc(C)c(C(=O)N4CCN(c5cccc(OC)c5)CC4)cc3c2=O)cc1,inactive: 81%
4,O=C(CSc1nnc(Cc2csc(Nc3cccc(Cl)c3)n2)o1)c1ccc2c(c1)OCCO2,inactive: 99%
5,CCN(C(=O)CCc1nc(-c2ccc(C)cc2)no1)c1cccc(C(F)(F)F)c1,active: -5%
6,CCOC(=O)c1c(C)[nH]c(CCC(=O)Nc2ccccc2C(F)(F)F)c1C,inactive: 71%
7,CCc1ccc(NC(=O)CSc2nnc3[nH]c(=O)cc(-c4ccccc4)n23)cc1,inactive: 100%
8,CCCS(=O)(=O)N1CC(=O)N(c2cccc(F)c2)C(C)(C(=O)NC2CCCCCC2)C1 (stereo unspecified),inactive: 83%
9,COc1ccc(C(=O)Nc2ccc(S(=O)(=O)Nc3cc(C)nc(C)n3)cc2)cc1,inactive: 56%
10,O=C(CCS(=O)(=O)c1cc2c(cc1Cl)NC(=O)CO2)NCCc1ccccc1,inactive: 95%
11,COc1cccc2cc(C(=O)Nc3ccc(CC(=O)O)cc3)c(=O)oc12,inactive: 66%
12,Cc1ccc(NC(=O)CSc2nc(-c3ccco3)cc(C(F)(F)F)n2)c(C)c1,active: 63%
13,CCOc1ccc(S(=O)(=O)N2Cc3ccccc3CC2C(=O)Nc2ccc(NC(C)=O)cc2)cc1 (stereo unspecified),inactive: 69%
14,Cc1ccn2c(NC3CCCCC3)c(C)nc2c1,inactive: 97%
15,CCCCN1CC(c2nc3ccccc3n2CCCCOc2cc(C)cc(C)c2)CC1=O (stereo unspecified),active: 33%
16,COc1ccc(-c2cc(C(=O)Nc3sc4c(c3C(N)=O)CCCC4)no2)cc1,inactive: 56%
17,CCN(CC)CCNC(=O)C(=O)Nc1c2c(nn1-c1ccc(F)cc1)CSC2,inactive: 84%
18,O=C(Nc1cccc(C(F)(F)F)c1)Nc1nnc(N2CCCCCC2)s1,inactive: 85%
19,COCCCNC(=O)CN1C(=O)c2cccnc2Sc2ccccc21,inactive: 84%
20,CC(=O)c1cccc(NC(=O)CN2C(=O)CCc3cc(S(=O)(=O)N4CCCCC4)ccc32)c1,inactive: 70%
21,COc1ccccc1N1CCN(C(=O)c2cc(-c3ccc(C)c(F)c3)on2)CC1,inactive: 66%
22,Cc1c(C(=O)OCCOc2ccccc2)[nH]c2c1C(=O)CC(c1ccc(C(C)(C)C)cc1)C2 (stereo unspecified),inactive: 70%

row,SMILES,survival
1,CCn1c2c(c(=O)n3ncc(C(=O)Nc4cc(Cl)ccc4OC)c13)CN(Cc1ccc(OC)cc1)CC2,inactive: 89%
2,O=C(NCc1ccc(Cl)cc1)C1CCN(c2nn3cc(-c4ccc(F)cc4)nc3s2)CC1,inactive: 93%
3,CCCNC(=O)CCC(=O)N1Cc2cccc(OC)c2Oc2ncccc21,inactive: 102%
4,CC1CN(C(=O)NCc2ccccc2)c2cc(Cl)ccc2O1 (stereo unspecified),inactive: 49%
5,Cc1cccc(NC(=O)CSc2nc3ccc(NC(=O)COc4ccccc4C)cc3s2)c1,inactive: 69%
6,CCCCN1C(=O)c2ccc(Br)cc2C1=O,inactive: 102%
7,O=c1c2ccccc2ncn1-c1ccc(F)cc1,inactive: 84%
8,Cc1ncc(CO)c2c1Oc1nc(-c3ccc(Cl)cc3)nc(SCC(=O)N3CCCCC3)c1C2,active: 48%
9,O=C(Nc1nccs1)c1ccc(-c2ccc(Cl)cc2)o1,active: 35%
10,Cc1cccc(CSc2nc3c(sc4ccccc43)c(=O)n2CCC(=O)NC(C)C)c1,inactive: 103%
11,COc1ccc(Cl)cc1NC(=O)c1cc(-c2ccc3c(c2)OCO3)on1,inactive: 60%
12,COc1ccc(NC(=O)c2nc(S(C)(=O)=O)ncc2N(Cc2ccc(C)cc2)Cc2ccco2)cc1Cl,inactive: 52%
13,COc1cccc(CNC(=O)c2cc(-c3ccc(Cl)s3)nc3ccccc23)c1,inactive: 94%
14,CCCCc1cc(=O)oc2cc(C)c3c(C(C)(C)C)coc3c12,inactive: 102%
15,COc1ccc(C)cc1NC(=O)N1CCN(S(=O)(=O)c2ccc3c(ccn3C)c2)CC1,inactive: 49%
16,COc1ccc(CNC(=O)CN2C(=O)CC(c3ccc(C)c(C)c3)=Nc3ccccc32)cc1,inactive: 77%
17,COc1ccc(C(=O)NCCn2cc(SCc3c(F)cccc3Cl)c3ccccc32)cc1,inactive: 51%
18,Cc1ccc(-n2ncc3c(NC4CCCCCC4)ncnc32)cc1,inactive: 66%
19,O=c1[nH]c2cc(Br)ccc2n2cccc12,inactive: 67%
20,COc1cc(C)c(N)cc1C(C)C,inactive: 105%
21,Cc1cc(C)c(-c2n[nH]c3c2C(c2ccccc2F)N(Cc2ccco2)C3=O)c(O)c1 (stereo unspecified),active: 2%
22,O=C(c1cnc(N2CCOCC2)c2ccccc12)N1CCN(c2ccccc2)CC1,inactive: 95%

row,SMILES,survival
1,CCCCc1nnc(SCc2cc(=O)c3cc(F)ccc3[nH]2)n1C,inactive: 83%
2,COc1ccc(-c2cc(C(F)(F)F)nc(SCCC(=O)Nc3ccc(OC)c(OC)c3)n2)cc1,active: 40%
3,Cc1ccc(NC(=O)c2sc3nc(-c4cccs4)ccc3c2N)cc1F,inactive: 53%
4,O=C(NC12CC3CC(CC(C3)C1)C2)c1cncc(O)c1,inactive: 90%
5,CCN(CC)C(=O)c1c(NC(=O)c2cccc(C)c2)sc2c1CCC(C)C2 (stereo unspecified),active: -1%
6,CCN1CCC(N(Cc2ccc3c(c2)OCO3)C(=O)Nc2cc(F)ccc2F)CC1,inactive: 81%
7,CC(C)(C)NC(=O)C1CCN(c2nc3ccccc3nc2C(F)(F)F)CC1,inactive: 63%
8,CCC(CC)c1nnc(NC(=O)CS(=O)(=O)Cc2ccccc2)s1,inactive: 70%
9,COc1ccc(OC)c2sc(N3CCN(C(=O)c4ccco4)CC3)nc12,inactive: 87%
10,COc1cc(NC(=O)N2CCc3c(sc4c3CCCC4)C2c2ccccc2)cc(OC)c1OC (stereo unspecified),inactive: 103%
11,O=C(CN1C(=O)COc2ccc(S(=O)(=O)NC3CCCC3)cc21)NCc1ccc(Cl)cc1,inactive: 69%
12,CCOc1ccc(CNC(=O)CSc2nnc(C)c3c(C)n(-c4ccc(Cl)cc4)nc23)cc1,inactive: 91%
13,CCN(CC)CCSc1c(C(C)C)cnc2c1c(=O)n(C)c(=O)n2C,inactive: 74%
14,CCN(CC)C(=O)c1ccc2c(c1)N(Cc1ccc(C(F)(F)F)cc1)C(=O)c1ccccc1S2,inactive: 73%
15,CCOCCCn1c(=N)c(C(=O)NCc2cccnc2)cc2c(=O)n3ccccc3nc21,inactive: 83%
16,Cc1nn2c(=O)cc(COC(=O)c3cccc(NC(=O)COc4ccccc4C)c3)nc2s1,inactive: 68%
17,Cn1c(=O)c(C(=O)O)nn(-c2ccccc2)c1=O,inactive: 63%
18,Cc1ccc(NC(=O)Nc2nnc(N3CCCC3)s2)cc1C,inactive: 81%
19,COC(=O)c1ccc(C(=O)OC)c(NC(=O)CN(c2ccccc2)S(=O)(=O)N(C)C)c1,inactive: 70%
20,COc1cccc(CN(Cc2ccco2)C(c2nnnn2Cc2ccc(F)cc2)C(C)C)c1 (stereo unspecified),inactive: 82%
21,CCOc1ccccc1CNC(=O)C1CCCN(c2nnc(C)c3c(C)n(-c4ccccc4)nc23)C1 (stereo unspecified),inactive: 76%
22,Cc1c(C(=O)N2CCC(C)CC2)c(S(=O)(=O)N(Cc2ccccc2)C(C)(C)C)c(C)n1C,inactive: 95%

row,SMILES,survival
1,CN(C)NC1CCS(=O)(=O)C1 (stereo unspecified),inactive: 92%
2,CN1CCN(C(=O)C(=O)Nc2c3c(nn2-c2ccc(Cl)cc2)CSC3)CC1,inactive: 72%
3,CCc1nn(CCCC(=O)NCc2ccc(OC(C)C)cc2)c(=O)c2cc3occc3n12,inactive: 77%
4,COc1ccc(N2CCN(C(=O)c3cccn3-c3nnc(N4CCCC4)s3)CC2)cc1,inactive: 101%
5,O=C(CSc1n[nH]c(-c2ccccc2Cl)n1)NCCc1ccccc1,inactive: 87%
6,CCOc1cc(CNS(=O)(=O)c2ccc3c(c2)C(C)(C)C(=O)N3)cc(OCC)c1OCC,inactive: 98%
7,CC(NC(=O)Cn1ccc2cc(S(=O)(=O)N3CCCCCC3)ccc21)c1ccccc1 (stereo unspecified),inactive: 92%
8,COc1ccc(C)cc1NC(=O)Nc1nnc(N2CCCCC2)s1,inactive: 68%
9,CCOC(=O)C1CCCN(c2nc3c(S(=O)(=O)c4ccc(CC)cc4)nnn3c3ccc(Cl)cc23)C1 (stereo unspecified),inactive: 79%
10,COc1ccc(Nc2ncnc3sc4c(c23)CCCC4)cc1,inactive: 69%
11,O=C(NCc1ccccc1Cl)c1ccc(CS(=O)(=O)c2ccc(Br)cc2)o1,inactive: 127%
12,CCC(=O)Nc1sc2c(c1C#N)CC(C)(C)NC2(C)C,inactive: 81%
13,Cc1c(CNC2CCCCC2)c(C(=O)O)c(C)n1Cc1ccc(Cl)cc1,inactive: 84%
14,O=C(CSc1ncccn1)NN=C1CCCCCC1,inactive: 96%
15,Cc1ccc(Cn2c3ccccc3c3cnn(CC(=O)Nc4cc(Cl)ccc4C)c(=O)c32)cc1,inactive: 84%
16,Clc1ccc(-n2ncc3c(NC4CCCC4)ncnc32)cc1,inactive: 99%
17,CCN(CC)S(=O)(=O)c1ccc2c(c1)N(CC(=O)N1CCN(c3cccc(C)c3C)CC1)C(=O)CO2,inactive: 120%
18,Cc1cc(C)c(NC(=O)Cn2c(=O)n(CCC(=O)N3CCc4ccccc4C3)c(=O)c3ccccc32)c(C)c1,inactive: 70%
